Experimental data published in PMC7819943, “Rice protein-binding microarrays: a tool to detect cis-acting elements near promoter regions in rice”.
The other results are listed elsewhere or left out.

Molecular target: T1, OsWOX13 (Oryza sativa, UniProt Q5QMM3 1-267)
T1 sequence: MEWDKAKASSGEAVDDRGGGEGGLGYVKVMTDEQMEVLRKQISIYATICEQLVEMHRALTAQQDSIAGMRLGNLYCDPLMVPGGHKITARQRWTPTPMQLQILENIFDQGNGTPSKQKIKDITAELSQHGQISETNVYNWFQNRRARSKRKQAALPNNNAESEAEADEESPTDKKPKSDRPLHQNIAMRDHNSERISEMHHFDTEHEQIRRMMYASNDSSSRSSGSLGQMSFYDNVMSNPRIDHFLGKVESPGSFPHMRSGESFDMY
Assay: protein-binding microarray (RPBM); PBS, 2% BSA, 51.3 ng/ul salmon testes DNA, 50 uM zinc acetate, 200 nM TF, 25 C, 1 h; high values mean tight binding
Conditions: protein: recombinant; tags: N-terminal polyhistidine and DsRed monomer fusion (pET32a); label: CyDye5-dUTP incorporated in the synthesized complementary strand; 3' TTTTT single-stranded linker to array surface; dsDNA, one strand shown
Procedure, shortened: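 The binding signal for each feature is its fluorescence intensity in arbitrary units. An Axon 4000B scanner was used to read a custom Agilent array that had been made double-stranded with Cy5-dUTP primer extension, blocked with 2% BSA, incubated at 25 °C for 1 h with 200 nM protein in PBS, 2% BSA, salmon testes DNA and 50 µM zinc acetate, and washed. The protein was an N-terminal polyhistidine–DsRed transcription factor fusion from E. coli BL21-CodonPlus, purified on Ni–NTA.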

| Sequence | binding signal |
| --- | --- |
| ACATTATAAATTTGCTATTGTTGCAATTTGGACCACCACGCGGAGTCACCTAGTGCAG | 4640 fluorescence intensity (a.u.) |
| TAGTAACTGATGTGTGTGTGTGTGCAGTCTCCGTGCGTGTCGGAGTCACCTAGTGCAG | 6590 fluorescence intensity (a.u.) |
| AAAACAGATACCAATAGATGATTAGATGAAGTGAGGAGAGCGGAGTCACCTAGTGCAG | 6570 fluorescence intensity (a.u.) |
| AAAATAGCTAATGCTTAATTAATCACGCGCTAATGGATCGCGGAGTCACCTAGTGCAG | 6230 fluorescence intensity (a.u.) |
| GCACATTAACTGATCACACCATCATCGCATCAAAGATGCACGGAGTCACCTAGTGCAG | 7430 fluorescence intensity (a.u.) |
| TTAAATAATAAGAATTGTTGATTGCATATAATTAGTTTACCGGAGTCACCTAGTGCAG | 9070 fluorescence intensity (a.u.) |
| GTGGAACCCTAATTGAAGTCGATTTCTGGTAGTACAAGTTCGGAGTCACCTAGTGCAG | 10700 fluorescence intensity (a.u.) |
| TTGACTATTAAATTGGCTATAGATAAATTGGAGCTAGTAGCGGAGTCACCTAGTGCAG | 23600 fluorescence intensity (a.u.) |
| GACTTTATAATTTTACTATTCTATTATAAAATCAGTCAATCGGAGTCACCTAGTGCAG | 4190 fluorescence intensity (a.u.) |
| GCTAGATTGGAAGTGGGCAAGGAAGCCGCTTTCTCCCGTACGGAGTCACCTAGTGCAG | 27500 fluorescence intensity (a.u.) |
| GATGATTTGGAACCATCAGTTGGCTATACTATTAAACTTGCGGAGTCACCTAGTGCAG | 31800 fluorescence intensity (a.u.) |
| CATATAATTTCCTCTGTTTCGCAACCATACTTTGAGAGCCCGGAGTCACCTAGTGCAG | 6960 fluorescence intensity (a.u.) |
| TTCTTGTTGAAATTTGTAATTTAAGATGCATGAGACCACACGGAGTCACCTAGTGCAG | 3210 fluorescence intensity (a.u.) |
| CACAACAATCAATAATGCCAATAATTAATGCAGGTGTGTTCGGAGTCACCTAGTGCAG | 26200 fluorescence intensity (a.u.) |
| CACCATAATTTGACAATGTGGTGCTACAATAAACATTTGCCGGAGTCACCTAGTGCAG | 12600 fluorescence intensity (a.u.) |
| TTATAATATAATTACATTATGATTATATTATATTTACGTCCGGAGTCACCTAGTGCAG | 36600 fluorescence intensity (a.u.) |
| CTACGGTAATTTATCTTTAGAGGCGAAACTTCAAATGTATCGGAGTCACCTAGTGCAG | 5470 fluorescence intensity (a.u.) |
| AACAGATTTATAATTAGTCCCTAAAATAAGTCCAAAACTCCGGAGTCACCTAGTGCAG | 11200 fluorescence intensity (a.u.) |
| GATAAACAATTATTGATAGACTATTTGTTGGTAAAGGCTTCGGAGTCACCTAGTGCAG | 29300 fluorescence intensity (a.u.) |
| GAAAATTAAAGAATATATATAATTGATGATCAAGAATGTACGGAGTCACCTAGTGCAG | 11200 fluorescence intensity (a.u.) |
| TAGGATTGGCAAATGATTTTCATAGGATTTAAATTCCTATCGGAGTCACCTAGTGCAG | 33500 fluorescence intensity (a.u.) |
| AAAACCTTGATTATTCTCGCTGCGTGTATCCCATTCCCACCGGAGTCACCTAGTGCAG | 11000 fluorescence intensity (a.u.) |
| ATGATTGCCGTATGATATGTGATACGAAAGAGTTGGGGATCGGAGTCACCTAGTGCAG | 32700 fluorescence intensity (a.u.) |
| GATTATTATTATTAATTAATTACACCGTCCCAACCGGCTTCGGAGTCACCTAGTGCAG | 33400 fluorescence intensity (a.u.) |
| TTTAGATAGAACTAACTGGAGCGGAACGGGTGGGTTGTGGCGGAGTCACCTAGTGCAG | 16900 fluorescence intensity (a.u.) |
| AGTGATTACCGTCTCTTGTTAATTTAGTCTCCAATCGCCCCGGAGTCACCTAGTGCAG | 40200 fluorescence intensity (a.u.) |
| GGTGACATGATTTAAGACCAATTGTGTACTTTTACTATTTCGGAGTCACCTAGTGCAG | 23500 fluorescence intensity (a.u.) |

| Sequence | binding signal |
| --- | --- |
| CCTATAATTAATCGGACGTGTTGGTCGTGTGTATAATATTCGGAGTCACCTAGTGCAG | 13400 fluorescence intensity (a.u.) |
| GCGAAATTAATTAGCAGATTCGTTGCACCTCGCCGTCGGCCGGAGTCACCTAGTGCAG | 26800 fluorescence intensity (a.u.) |
| GTCTTTCAAAATTGATCGTCATCTAAACGGGGTCTATTTACGGAGTCACCTAGTGCAG | 5150 fluorescence intensity (a.u.) |
| GTGATGACTTCGTCAATCTCTAGGATTTGCCGACCCAGTCCGGAGTCACCTAGTGCAG | 7300 fluorescence intensity (a.u.) |
| CTGATTTAAATTGAAAGCAACCGTCTTTTGATTTGTGTAGCGGAGTCACCTAGTGCAG | 57100 fluorescence intensity (a.u.) |
| GGGCCAATTGGGCCCTATTGATTGGGCCGTGCCCAACCGTCGGAGTCACCTAGTGCAG | 20700 fluorescence intensity (a.u.) |
| TAAGTCAATGACTTAAATTTGGGTGGGCAAGTTCTACCACCGGAGTCACCTAGTGCAG | 3960 fluorescence intensity (a.u.) |
| AGTAATTAATAACCTATTGGTAGGTAAGATTACGTCTAAACGGAGTCACCTAGTGCAG | 10900 fluorescence intensity (a.u.) |
| TTGTAATCTGAAACGGATTGAGTAATACCTAATCAGCCTACGGAGTCACCTAGTGCAG | 3230 fluorescence intensity (a.u.) |
| ATAATTGTTCAATGTTACTGCGAAAACTCTTGCAGTTGCACGGAGTCACCTAGTGCAG | 6900 fluorescence intensity (a.u.) |
| ATATGCTAAACAAATTAGAATTACAATTTATATTGGACGACGGAGTCACCTAGTGCAG | 6090 fluorescence intensity (a.u.) |
| TTGGTCAAATTGGAGTGGATTGGGTGCGTCCGTGTCCAAACGGAGTCACCTAGTGCAG | 11600 fluorescence intensity (a.u.) |
| ATATATATATATATATATATATGTGTGTATATATATATATCGGAGTCACCTAGTGCAG | 6150 fluorescence intensity (a.u.) |
| TACATACAAGTTACAGTGTAATTACACTACGATTGTACTACGGAGTCACCTAGTGCAG | 3630 fluorescence intensity (a.u.) |
| TCACACTATCATTGTAACAAATTGAAATATGTCACTAATGCGGAGTCACCTAGTGCAG | 10200 fluorescence intensity (a.u.) |
| CAAATCATGACGCAATCAGGCTTAAAAGATTTGTCTCGCACGGAGTCACCTAGTGCAG | 17800 fluorescence intensity (a.u.) |
| CTAGATCATCAAAACAAATTATGGCTGTGTTTAGTTCAGCCGGAGTCACCTAGTGCAG | 8260 fluorescence intensity (a.u.) |
| GAATAATTAAACAAGTTGGTTCACCTGTCCCAGCTGCTAACGGAGTCACCTAGTGCAG | 20900 fluorescence intensity (a.u.) |
| ATCGGTGAATTAATTTACAGCGCTAGAAATCTTGATGGATCGGAGTCACCTAGTGCAG | 11500 fluorescence intensity (a.u.) |
| CGATCTGATGGACGGTCCTGATTGATCCCGATCTATACAACGGAGTCACCTAGTGCAG | 26200 fluorescence intensity (a.u.) |
| ACCTCGTCACCTCGTCTTAATTACTTTGGAGTGGCATGCACGGAGTCACCTAGTGCAG | 8950 fluorescence intensity (a.u.) |
| ATTTCAGATTGGGTTATTTGAGAGCTAAATTTCTAATGTACGGAGTCACCTAGTGCAG | 4680 fluorescence intensity (a.u.) |
| TGTAACTCTCGTATGTAATTGAGTAAAACATGTTGGTGCTCGGAGTCACCTAGTGCAG | 4540 fluorescence intensity (a.u.) |
| CACTAACTAATAATTAATCAAGCCGGTAGGCGCAGCGTGGCGGAGTCACCTAGTGCAG | 32900 fluorescence intensity (a.u.) |
| TTTTATTGTCCAATTGGATTTTGTATCTACGTTTGAATTTCGGAGTCACCTAGTGCAG | 3470 fluorescence intensity (a.u.) |
| GCAGGGTAATTACTTGTCAGACGAAGACTGTAATTTTAACCGGAGTCACCTAGTGCAG | 12000 fluorescence intensity (a.u.) |
| AGTTTTAAACACGGTTTAATTATAAAATAAATTTTGTGAGCGGAGTCACCTAGTGCAG | 8730 fluorescence intensity (a.u.) |
